One block for each binder: values may come before it.
What was measured:
[1] = biological target: hCA-IX-ECD monomeric (monomeric parental CA-IX extracellular domain) (human, UniProt Q16790 part only); assay: BLI (Octet); Fc fusion captured on anti-human Fc (AHC) biosensors, CA-IX in solution, global fit
[2] = biological target: hCA-IX expressed on cells (SKRC52, SKRC59, 67NR^hCA-IX) (human, UniProt Q16790); assay: Plate-based cell binding assay, one site specific binding fit; cell line not given

Kd [1]: 16.3 nM
Kd [2]: 3.49 nM
B1: sdCA9-1-Fc (Fc fusion)
chain: QVQLVESGGGLVQAGGSLRLSCAASGFTFDDWAIGWFRQAPGKEREGVSCISKRHGTTHYADSVKGRFTISSDNAKNTVYLRMNGLKPEDTAVYYCAASSWGSCTVATMRDVDRYDYDYWGQGTQVTVSSA[no letters for human IgG1 Fc]
notes: The chain is built here from its parts without the leader; Human IgG1 Fc fusion produced in CHO3E7 cells and purified on protein A. Fc-mediated dimerisation is described only in general terms; also called sdCA9-Fc 1

Kd [1]: 17.8 nM
Kd [2]: 0.658 nM
B2: sdCA9-2-Fc (Fc fusion)
chain: QVKLEESGGDLVQPGGSLRLSCAASGFTLDYYAIGWFRQAPGKEREGVSCFSSVDGSTYYADSVKGRFTISRDNAKNMVYLQMNSLKPEDTAIYYCAAELYGELGVATVQAMCRLTTPGGDYWGQGTQVTVSSA[no letters for human IgG1 Fc]
notes: The chain is built here from its parts without the leader; Human IgG1 Fc fusion produced in CHO3E7 cells and purified on protein A; also called sdCA9-Fc 2
